{"source": "paper PMC7942396", "about": "“Drug Repurposing Screen for Compounds Inhibiting the Cytopathic Effect of SARS-CoV-2” (Frontiers in Pharmacology, 2021)", "key": {"[1]": {"system": "SARS-CoV-2 (USA_WA1/2020)", "test": "microbe, parasite or virus in culture", "format": "cell-based", "conditions": "for Emax: Severe acute respiratory syndrome coronavirus 2, Vero C1008, read-out: CPE % Efficacy"}, "in vitro": {"test": "in vitro", "conditions": "African green monkey"}, "[2]": {"conditions": "Severe acute respiratory syndrome coronavirus 2, Vero C1008, read-out: CPE EC50"}, "[3]": {"conditions": "Severe acute respiratory syndrome coronavirus 2, Vero C1008, 72 h, read-out: CPE EC50"}}, "note": "Where a name gives a salt, the structure may show the parent alone. Read-outs that look alike come from different tables or passages of the source."}
{"smiles": "C[C@@H]1C[C@H](N)C[C@H](c2ccncc2NC(=O)c2ccc(F)c(-c3c(F)cccc3F)n2)C1", "note": "[LGH-447]", "values": [{"measurement": "Emax", "setting": "[1]", "result": 91.4, "unit": "%"}, {"measurement": "CC50", "setting": "in vitro", "result": 12.6, "unit": "µM"}, {"measurement": "cytotoxicity", "setting": "in vitro", "result": 38.3, "unit": "%"}]}
{"smiles": "Clc1ccc2c(c1)CCc1cccnc1C2=C1CCNCC1", "note": "[Desloratadine]", "values": [{"measurement": "Emax", "setting": "[1]", "result": 69, "unit": "%"}, {"measurement": "EC50", "setting": "[1]; [2]", "result": 10, "unit": "µM"}]}
{"smiles": "Clc1ccc2c(c1)C(N1CCNCC1)=Nc1ccccc1O2", "note": "[Amoxapine]", "values": [{"measurement": "EC50", "setting": "[1]; [2]", "result": 8.91, "unit": "µM"}]}
{"smiles": "Fc1ccc(C(c2ccc(F)cc2)N2CCN(C/C=C/c3ccccc3)CC2)cc1", "note": "[Flunarizine, reference compound]", "values": [{"measurement": "EC50", "setting": "[1]; [3]", "result": 10, "unit": "µM"}]}
{"smiles": "CN1CCC(=C2c3ccccc3C=Cc3ccccc32)CC1", "note": "[Cyproheptadine hydrochloride]", "values": [{"measurement": "EC50", "setting": "[1]; [2]", "result": 11.2, "unit": "µM"}]}
{"smiles": "CN1CCC[C@@H]1CCO[C@](C)(c1ccccc1)c1ccc(Cl)cc1", "note": "[Clemastine fumarate, reference compound]", "values": [{"measurement": "EC50", "setting": "[1]; [3]", "result": 7.9, "unit": "µM"}, {"measurement": "Emax", "setting": "[1]", "result": 96, "unit": "%"}]}
{"smiles": "CN1CCN(CCCN2c3ccccc3Sc3ccc(Cl)cc32)CC1", "note": "[Prochlorperazine dimaleate]", "values": [{"measurement": "EC50", "setting": "[1]; [2]", "result": 8.91, "unit": "µM"}]}
{"smiles": "CN(C)CCCN1c2ccccc2CCc2ccc(Cl)cc21", "note": "[Clomipramine hydrochloride]", "values": [{"measurement": "EC50", "setting": "[1]; [2]", "result": 10, "unit": "µM"}]}
{"smiles": "CN1[C@@H]2CC[C@H]1C[C@@H](OC(c1ccccc1)c1ccccc1)C2", "note": "[Benztropine mesylate]", "values": [{"measurement": "EC50", "setting": "[1]; Severe acute respiratory syndrome coronavirus 2, Vero C1008, read-out: CPE EC50 (uM)", "result": 14.1, "unit": "µM"}]}
